# The whole screen tested about 360,000 compounds, of which about 520 (0.14%) were called active. Inconclusive means that the source gave no clear call. Such entries were picked first, then a sample of the others. The call rests on the fitted dose curve; in most records, active means well fitted inhibition curve with a large enough effect; inconclusive means small, poorly fitted or top-dose-only effect; inactive means no such curve, though single readings can be large or run the other way. Potencies of inconclusive entries are left out as doubtful fits.
# Molecular target: Rap guanine nucleotide exchange factor 3 (Homo sapiens) (UniProt O95398)
# Chain of UniProt O95398 (O95398 whole entry, looked up): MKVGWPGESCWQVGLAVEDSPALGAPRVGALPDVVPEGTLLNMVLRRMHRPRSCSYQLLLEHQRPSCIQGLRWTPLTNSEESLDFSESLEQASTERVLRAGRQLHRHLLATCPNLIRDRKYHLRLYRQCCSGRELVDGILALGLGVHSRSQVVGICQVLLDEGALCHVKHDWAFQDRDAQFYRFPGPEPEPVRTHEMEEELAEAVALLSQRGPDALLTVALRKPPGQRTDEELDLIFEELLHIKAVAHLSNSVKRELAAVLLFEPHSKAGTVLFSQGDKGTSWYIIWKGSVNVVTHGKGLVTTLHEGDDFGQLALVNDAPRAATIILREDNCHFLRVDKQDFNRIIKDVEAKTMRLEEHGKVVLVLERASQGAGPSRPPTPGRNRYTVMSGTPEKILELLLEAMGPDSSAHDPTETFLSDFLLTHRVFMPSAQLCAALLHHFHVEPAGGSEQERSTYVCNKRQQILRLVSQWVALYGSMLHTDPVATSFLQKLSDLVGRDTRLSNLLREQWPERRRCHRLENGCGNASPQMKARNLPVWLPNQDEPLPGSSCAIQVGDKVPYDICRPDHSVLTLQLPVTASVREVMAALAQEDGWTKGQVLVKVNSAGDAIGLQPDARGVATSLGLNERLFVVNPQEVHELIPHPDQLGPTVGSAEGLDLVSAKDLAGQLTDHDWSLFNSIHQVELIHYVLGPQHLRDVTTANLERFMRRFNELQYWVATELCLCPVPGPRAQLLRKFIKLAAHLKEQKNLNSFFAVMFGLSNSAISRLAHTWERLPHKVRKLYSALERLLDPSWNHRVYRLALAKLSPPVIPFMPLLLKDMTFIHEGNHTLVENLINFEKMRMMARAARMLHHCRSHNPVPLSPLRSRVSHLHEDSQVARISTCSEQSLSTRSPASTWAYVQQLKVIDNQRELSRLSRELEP
# Test: qHTS for Antagonist of cAMP-regulated guanine nucleotide exchange factor 3 (EPAC1): primary screen; further: nearly all actives have a fitted effect of over 50% in size;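 on activity change, negative = inhibition: plate controls were vehicle for no effect and positive control for full effect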
# Details: EPAC1 GEF assay, Rap1b-BODIPY-GDP exchange fluorescence; activity change, negative = inhibition: at 115 µM (top of the series)
# Potency means the concentration at half of the fitted maximal effect; tags describe the fitted curve by direction and shape.
SMILES,Potency,"activity change, negative = inhibition"
COc1ccc(NC(=O)COC(=O)CN2C(=O)C3CCCCC3C2=O)cc1OC (centres undefined),"inconclusive [inhibitor, full curve, poor fit]",–
N#CCC(=O)Nc1ccc(C(=O)OCC(=O)NC2CCCCCC2)cc1,inactive,–
Cc1ccccc1S(=O)(=O)Cc1ccc(C(=O)NC(C)c2ccccc2)o1 (centres undefined),–,inconclusive: -6.63% [inhibitor]
O=C(CN1CCCCCC1)Nc1ccccc1OC(F)F,"inconclusive [inhibitor, partial curve, poor fit]",–
O=C(Nc1ccc2c(c1)OCCO2)NC1(C(F)(F)F)Oc2ccccc2O1,"inconclusive [inhibitor, single point]",–
CC1(OC(=O)CCc2ccccc2)C(=O)C=C2C=C(c3ccc(C#N)cc3)N(CC3CC3)C=C2C1=O (centres undefined),inactive,–
Cc1cc(C=NCCCO)c(C)n1-c1cc(Cl)ccc1Cl,"inconclusive [inhibitor, single point]",–
O=C(CC(Nc1cccc(Cl)c1Cl)C(=O)O)c1ccccc1 (centres undefined),inactive,–
N#CCCN(C(=O)COC(=O)CCc1ccccc1)c1ccccc1,"inconclusive [inhibitor, single point]",–
CCCCNC(=O)C1(C)CCN1C(=O)c1ccc2c(c1)C(C)(C)CCC2(C)C (centres undefined),inactive,–
Cc1nnc(SC(C(=O)Nc2cc(Cl)cc(Cl)c2)c2ccccc2)[nH]c1=O (centres undefined),"inconclusive [inhibitor, single point]",–
CCCn1ncc(C(=O)NC2CCCN(Cc3ccc(Cl)cc3)C2)c1C (centres undefined),"inconclusive [inhibitor, partial curve]",–
COc1ccc(C)cc1Cn1nnc2ccccc21,"inconclusive [inhibitor, partial curve, poor fit]",–
C[C@@H](NC(=O)c1nc[nH]c1C(=O)N[C@@H](CCCCNC(=O)OC(C)(C)C)C(=O)OC(C)(C)C)c1ccccc1,"inconclusive [inhibitor, full curve, poor fit]",–
Cc1cccc(C(=O)Nc2sc3c(c2C(=O)O)CCC3)c1,"inconclusive [inhibitor, single point]",–
COc1ccc(C2C(C(=O)O)CCC(=O)N2c2ccc(C)cc2)cc1OC (centres undefined),"inconclusive [inhibitor, single point]",–
Cc1cc(C)c([N+](=O)[O-])cc1-c1ccc(/C=N/c2c(-c3ccco3)nc3ccccn23)o1,"inconclusive [inhibitor, partial curve]",–
FC(F)(F)c1cccc(NC(=S)N(CCCN2CCCC2)Cc2cccn2Cc2ccc(Cl)cc2)c1,"inconclusive [inhibitor, partial curve]",–
COCCn1c(-c2ccc(-c3ccccc3Cl)o2)nc2c1c(=O)[nH]c(=O)n2CC(C)C,inactive,–
CCN(CC)CC(=O)Nc1cc(N(C)C)nc2ccccc12,inactive,–
CCOc1ccc(C(=O)/C=C/c2ccc(OC)c(OC)c2)cc1,"inconclusive [inhibitor, single point]",–
O=C(N/N=C/c1ccccc1C(=O)O)c1cccc(S(=O)(=O)Nc2cc(Cl)ccc2Cl)c1,"inconclusive [inhibitor, single point]",–

SMILES,Potency,"activity change, negative = inhibition"
C=CCn1c(SCC(=O)NCC2CCCO2)nc2scc(-c3ccc(OC)cc3)c2c1=O (centres undefined),"inconclusive [inhibitor, partial curve]",–
Cc1ccc2nc(-c3ccccn3)cc(C(=O)Nc3ccc(S(=O)(=O)N4CCOCC4)cc3)c2c1,–,inconclusive: -10.4% [inhibitor]
Cc1ccccc1NC(=O)CCN1C(=O)c2ccccc2C1=O,–,inconclusive: -9.43% [inhibitor]
COc1ccc(NC(=O)CCN2C(=O)c3ccncc3C2=O)cc1OC,inactive,–
Nc1nnc(-c2cccc(F)c2)s1,"inconclusive [inhibitor, single point]",–
NC(=S)N/N=C/c1ccc(-c2cc(Cl)cc(Cl)c2)o1,inactive,–
CC1=C(C(=O)Nc2cc(C(=O)NCc3ccccc3)ccc2C)SCCO1,"inconclusive [inhibitor, single point]",–
COC(=O)Cc1cc(=O)n2[nH]c(C(F)(F)F)nc2n1,inactive,–
O=C(N/N=C/C=C\c1ccco1)c1ccccn1,"inconclusive [inhibitor, full curve]",–
O=C(NNc1cc(N2CCOCC2)nc(N2CCOCC2)n1)c1ccc(Cl)c(Cl)c1,inactive,–
CN1CCN(C(=S)c2cn(Cc3cccc(F)c3)c3ccccc23)CC1,"inconclusive [inhibitor, partial curve]",–
COc1ccc(C(=O)OCC(=O)c2cc(C)n(CC3CCCO3)c2C)cc1[N+](=O)[O-] (centres undefined),"inconclusive [inhibitor, single point]",–
COc1ccc2ccc3c(c2c1)N=C[C@]1(O3)N(C)c2ccccc2C1(C)C,"inconclusive [inhibitor, single point]",–
Cc1cc(C)cc(NC(=O)CNC(c2ccccc2)c2ccccc2)c1,"inconclusive [inhibitor, partial curve, poor fit]",–
Cc1ccc(CNC(=O)CCN2C(=O)[C@@H]3Cc4ccccc4CN3C2=O)cc1,"inconclusive [inhibitor, single point]",–
CC(O)(c1cccnc1)c1nc(/C=C/c2ccccc2)cs1 (centres undefined),inactive,–
COc1ccc(-c2csc(C(C)(O)c3ccc(F)c(F)c3)n2)cc1 (centres undefined),inactive,–
Cc1nn(CCc2nn[nH]n2)c2nc(-c3ccc(C4CCCCC4)cc3)cc(C(F)(F)F)c12,active: 79.4 µM,–
Cc1ccc(-c2nn(-c3ccccn3)c(=O)c3ccccc23)cc1,"inconclusive [inhibitor, single point]",–
COc1ccc(-c2nc3ccc(C)cn3c2CC(C)(C)C)cc1OC,"inconclusive [inhibitor, partial curve]",–
Cc1ccc(OCCOCCn2cnc3ccccc3c2=O)c([N+](=O)[O-])c1,inactive,–
C#CCOCCOCCOCCNc1nc(N2CCN(C(=O)[C@H](Cc3cc4ccccc4[nH]3)n3cc([C@@H](N)Cc4ccc(O)cc4)nn3)CC2)nc(N2CCN(C(=O)[C@H](Cc3cc4ccccc4[nH]3)n3cc([C@@H](N)CC(C)C)nn3)CC2)n1,"inconclusive [inhibitor, partial curve]",–
